Among the data in paper PMC3983036 are binding values, retold here.

Sequences of proteins named here, by UniProt entry; tags and fusion partners are left off.
UniProt Q9VUV9: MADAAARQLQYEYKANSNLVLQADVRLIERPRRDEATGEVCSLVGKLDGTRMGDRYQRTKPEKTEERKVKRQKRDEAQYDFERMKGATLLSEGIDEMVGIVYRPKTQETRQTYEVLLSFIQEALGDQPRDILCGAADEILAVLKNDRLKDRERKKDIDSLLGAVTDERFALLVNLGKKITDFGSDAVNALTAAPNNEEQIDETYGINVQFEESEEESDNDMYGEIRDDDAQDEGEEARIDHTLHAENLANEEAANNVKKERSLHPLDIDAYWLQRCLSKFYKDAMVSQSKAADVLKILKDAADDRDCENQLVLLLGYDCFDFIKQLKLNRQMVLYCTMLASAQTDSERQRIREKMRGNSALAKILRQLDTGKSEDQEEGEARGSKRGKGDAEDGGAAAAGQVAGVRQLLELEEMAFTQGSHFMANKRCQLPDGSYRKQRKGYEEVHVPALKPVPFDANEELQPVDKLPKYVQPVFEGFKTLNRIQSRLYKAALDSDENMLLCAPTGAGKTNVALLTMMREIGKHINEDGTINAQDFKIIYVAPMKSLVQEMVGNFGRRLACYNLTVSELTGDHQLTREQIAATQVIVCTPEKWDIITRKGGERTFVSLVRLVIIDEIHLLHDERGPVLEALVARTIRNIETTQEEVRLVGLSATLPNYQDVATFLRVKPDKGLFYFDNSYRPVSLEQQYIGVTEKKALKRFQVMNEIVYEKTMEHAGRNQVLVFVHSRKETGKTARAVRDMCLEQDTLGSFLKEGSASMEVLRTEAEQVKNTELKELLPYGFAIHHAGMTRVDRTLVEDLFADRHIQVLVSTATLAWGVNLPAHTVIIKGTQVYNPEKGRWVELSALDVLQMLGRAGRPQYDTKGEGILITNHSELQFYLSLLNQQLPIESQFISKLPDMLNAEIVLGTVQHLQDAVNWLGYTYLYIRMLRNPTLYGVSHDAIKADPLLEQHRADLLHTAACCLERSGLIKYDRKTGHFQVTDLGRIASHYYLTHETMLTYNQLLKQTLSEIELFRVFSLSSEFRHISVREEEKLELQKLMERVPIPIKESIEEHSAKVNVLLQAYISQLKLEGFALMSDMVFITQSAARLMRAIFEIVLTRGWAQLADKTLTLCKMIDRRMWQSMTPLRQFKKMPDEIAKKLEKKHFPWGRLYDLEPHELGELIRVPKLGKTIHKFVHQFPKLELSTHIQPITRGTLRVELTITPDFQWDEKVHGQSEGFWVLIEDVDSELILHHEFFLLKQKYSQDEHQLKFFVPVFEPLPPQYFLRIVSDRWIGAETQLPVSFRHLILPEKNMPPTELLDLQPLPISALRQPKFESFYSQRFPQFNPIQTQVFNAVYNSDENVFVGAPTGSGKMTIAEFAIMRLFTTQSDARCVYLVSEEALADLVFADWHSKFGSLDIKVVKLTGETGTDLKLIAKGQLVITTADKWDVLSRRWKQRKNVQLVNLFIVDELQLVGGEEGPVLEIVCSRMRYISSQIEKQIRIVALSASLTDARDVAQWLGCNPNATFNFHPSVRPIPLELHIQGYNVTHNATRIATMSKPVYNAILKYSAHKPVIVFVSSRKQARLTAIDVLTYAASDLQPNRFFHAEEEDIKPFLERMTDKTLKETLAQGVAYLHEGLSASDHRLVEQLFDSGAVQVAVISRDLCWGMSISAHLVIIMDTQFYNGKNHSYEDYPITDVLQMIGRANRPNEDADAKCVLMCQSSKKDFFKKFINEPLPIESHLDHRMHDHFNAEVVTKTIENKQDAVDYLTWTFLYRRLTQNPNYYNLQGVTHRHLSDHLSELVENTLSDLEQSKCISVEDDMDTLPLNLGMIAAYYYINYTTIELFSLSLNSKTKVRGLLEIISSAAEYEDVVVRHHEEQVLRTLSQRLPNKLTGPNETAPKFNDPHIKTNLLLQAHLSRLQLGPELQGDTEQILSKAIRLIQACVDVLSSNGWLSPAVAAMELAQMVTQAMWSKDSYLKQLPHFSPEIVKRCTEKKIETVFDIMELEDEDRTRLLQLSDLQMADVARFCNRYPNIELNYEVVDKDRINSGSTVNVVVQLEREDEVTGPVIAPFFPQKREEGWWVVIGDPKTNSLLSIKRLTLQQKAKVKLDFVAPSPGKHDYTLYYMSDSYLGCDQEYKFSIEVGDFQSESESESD

These are yes or no findings as the source states them, for the method shown. Binding seen in cells or lysates may run through a third protein. Some results given as binding are weak or reduced against the parent protein; the word gives no strength. For part of these data: Sequences can lack the tags named with a protein.

What all share (assay): co-IP; pairs of epitope-tagged proteins expressed in S2 cells; lysis in 50 mM Tris-HCl pH 7.8, 150 mM NaCl, 1 mM EDTA, 1% Triton X-100, 0.01% Igepal; anti-Flag magnetic beads overnight at 4°C, five washes, immunoblot by the tags; cells with Ecd^1 upshifted to 30°C for 45 min before lysis; control: empty pTFW vector
In general terms: A western blot detects proteins with antibodies after separation by electrophoresis.

Test [1] deals with Prp8, epitope-tagged (co-immunoprecipitation of Figure 1B) (Drosophila melanogaster) (UniProt A1Z8U0).
The target in test [2] is Flag-tagged Prp8 (Drosophila) (Drosophila melanogaster) (UniProt A1Z8U0).
For test [3], the target named is Flag-tagged Brr2 (Drosophila) (Drosophila melanogaster) (UniProt Q9VUV9).

Regarding “Brr2, epitope-tagged (co-immunoprecipitation of Figure 1B) (from UniProt Q9VUV9 1-2142)”, the binding entry in test [1] is “binds”.

B1: Ecd, epitope-tagged (co-immunoprecipitation of Figure 1C) (protein, UniProt Q9W032 1-684)
chain: MSKIPGSNLEFVREEDFVEYYIFPKIPDNVQDEGALRKLMLQIRNEISAIVREKSLERSYLWHKDEFQLQVRLGGAEERLLNEETNPEEEAELGDLPPHFHGVTHYGDNISDEWFVVYLLTEITRARGDCIARVSDSDGEFLLIEAADALPDWASPETCEQRVYLVGGHLQLLQNSAASSQDKPLTMAMAVQRIRMNPTLYRCSQEIQSCIDARLKEYQIAQPHFSIHRQVLELPHSAAQLLKQKPRLLSSAVRAFCERDSLDIKALRTMRYFPPEATRVRTNVRFTRCLYAMLSHQQYLPEKRLGWHLTDPVSEPERYKEQLLGLKLASGLEILATQAKRVEGQQLEDLPAWRSYLRSLLSKGYFRDNIEGSAEYQELLNKAKVYFRGNQERFRTASRAGAEILDLLLHPAEAASEELRDEENNLQPSDSDEWLNISAEDLDSMLQDRYGPKKLYKPNGQMNAEEFTKQLAEFLDRQSNYEGIEHRGLEEPELDSDDDEPPPQANGSTGLTAKVKKNPSMRKACQRNSVIQPEEPDSTHVRNFLDFVIPEDNWDSTSEMSDYADEDDMESNLNALSGGGSVFPLDRQIQSYMEQMDRELAQTSVGKSFHGKKKTAPQADEDDFDDIEDFEPININVNTLRNMMDSYQSQVGGAGPVSNLFSAMGVGMSAVEDKEQKDISESAV
As to B1, in test [2], the binding result is reported as “binds”.

B2: Ecd^1 mutant protein (P656S), epitope-tagged (protein, UniProt Q9W032 1-684)
chain: MSKIPGSNLEFVREEDFVEYYIFPKIPDNVQDEGALRKLMLQIRNEISAIVREKSLERSYLWHKDEFQLQVRLGGAEERLLNEETNPEEEAELGDLPPHFHGVTHYGDNISDEWFVVYLLTEITRARGDCIARVSDSDGEFLLIEAADALPDWASPETCEQRVYLVGGHLQLLQNSAASSQDKPLTMAMAVQRIRMNPTLYRCSQEIQSCIDARLKEYQIAQPHFSIHRQVLELPHSAAQLLKQKPRLLSSAVRAFCERDSLDIKALRTMRYFPPEATRVRTNVRFTRCLYAMLSHQQYLPEKRLGWHLTDPVSEPERYKEQLLGLKLASGLEILATQAKRVEGQQLEDLPAWRSYLRSLLSKGYFRDNIEGSAEYQELLNKAKVYFRGNQERFRTASRAGAEILDLLLHPAEAASEELRDEENNLQPSDSDEWLNISAEDLDSMLQDRYGPKKLYKPNGQMNAEEFTKQLAEFLDRQSNYEGIEHRGLEEPELDSDDDEPPPQANGSTGLTAKVKKNPSMRKACQRNSVIQPEEPDSTHVRNFLDFVIPEDNWDSTSEMSDYADEDDMESNLNALSGGGSVFPLDRQIQSYMEQMDRELAQTSVGKSFHGKKKTAPQADEDDFDDIEDFEPININVNTLRNMMDSYQSQVGGAGSVSNLFSAMGVGMSAVEDKEQKDISESAV
As to B2, the binding entry in test [2] is listed as “binds”; in test [3] it was “no binding”.

B3: Ecd^l(3)23 mutant protein (truncated Ecd), epitope-tagged (domain or fragment, UniProt Q9W032 1-650)
chain: MSKIPGSNLEFVREEDFVEYYIFPKIPDNVQDEGALRKLMLQIRNEISAIVREKSLERSYLWHKDEFQLQVRLGGAEERLLNEETNPEEEAELGDLPPHFHGVTHYGDNISDEWFVVYLLTEITRARGDCIARVSDSDGEFLLIEAADALPDWASPETCEQRVYLVGGHLQLLQNSAASSQDKPLTMAMAVQRIRMNPTLYRCSQEIQSCIDARLKEYQIAQPHFSIHRQVLELPHSAAQLLKQKPRLLSSAVRAFCERDSLDIKALRTMRYFPPEATRVRTNVRFTRCLYAMLSHQQYLPEKRLGWHLTDPVSEPERYKEQLLGLKLASGLEILATQAKRVEGQQLEDLPAWRSYLRSLLSKGYFRDNIEGSAEYQELLNKAKVYFRGNQERFRTASRAGAEILDLLLHPAEAASEELRDEENNLQPSDSDEWLNISAEDLDSMLQDRYGPKKLYKPNGQMNAEEFTKQLAEFLDRQSNYEGIEHRGLEEPELDSDDDEPPPQANGSTGLTAKVKKNPSMRKACQRNSVIQPEEPDSTHVRNFLDFVIPEDNWDSTSEMSDYADEDDMESNLNALSGGGSVFPLDRQIQSYMEQMDRELAQTSVGKSFHGKKKTAPQADEDDFDDIEDFEPININVNTLRNMMDSYQSQ
As for B3, the binding entry is listed as “binds” in test [2] and “no binding” in test [3].
